Several values for one entry are separate records, joined by “and”; a condition that tells them apart may be missing. Identical values can stand only once. Out of some 120,000 compounds screened, about 5,300 (4.4%) were called active. Inconclusive results, whose numbers are uncertain, are shown with a selection of clear calls. Calls come from the whole dose curve; as a rule, active = well fitted inhibition curve with a large enough effect; inconclusive = small, poorly fitted or top-dose-only effect; inactive = no such curve, though single readings can be large or run the other way. Potencies of inconclusive entries are doubtful fits and often do not repeat.
experiment: qHTS Primary assay for Inhibitors of Plasmodium falciparum Dd2 growth in vitro; note: nearly all actives have a fitted effect of over 65% in size;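 for activity, negative = inhibition: plate controls were DMSO vehicle for no effect and reference drug for full effect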; settings: P. falciparum Dd2 growth, SYBR Green, 72 h; activity, negative = inhibition: at 28.9 µM (top of the series) unless noted; series mostly up to 28.9 µM
How it was run: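 Infected erythrocytes (Dd2, 0.3% parasitemia, 2.5% hematocrit final) are added to compound in RPMI-1640/Albumax II medium, grown 72 h at 37C in low oxygen, then lysed with saponin/Triton-X containing SYBR Green and read by fluorescence.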
Potency is the fitted concentration of half-maximal effect; tags give direction and shape of the fitted curve.

Q: With `O=C(c1ccccn1)N1CCC(N2CCOC2=O)CC1` as the compound, how does the “activity, negative = inhibition” value read?
A: inactive: 92.8% [at 44.1 µM]

Q: For `CC(C)CCN1CCC2(CC1)CC(=O)N(c1ccccc1)c1ccccc1O2`, which Potency is on record?
A: inconclusive: 1 µM [inhibitor, full curve] and inconclusive: 1.26 µM [inhibitor, partial curve]

Q: For `CCOc1ccccc1-c1nccn1C1COc2ccccc2C1` (stereo unspecified), which “activity, negative = inhibition” value is on record?
A: inactive: -12.2%

Q: With `O=C(c1cc2cn(C3CC3)cc2s1)N1CCc2ccccc2C1` as the compound, how does the Potency read?
A: inconclusive: 2 µM [inhibitor, full curve, poor fit]

Q: Which “activity, negative = inhibition” value does the source give for `COCCNC(=O)[C@@H]1C[C@H](Oc2ccccc2)CN1C(=O)CCc1nc2ccccc2[nH]1` here?
A: inactive: 8.36%

Q: For `CCC(=O)N1Cc2ccccc2CC2(CCCCN2C)C1` (stereo unspecified), which Potency is on record?
A: inconclusive: 10 µM [inhibitor, single point]

Q: For `CCc1noc(-c2cccn3c(CNC(=O)CCc4ccccc4)nnc23)n1`, which Potency is on record?
A: inconclusive: 4.47 µM [inhibitor, partial curve, poor fit]

Q: For `CCN(CC)C(=O)c1sc2c(c1C)c(=O)n(Cc1ccccc1)c(=O)n2Cc1cc(C)ccc1C`, which Potency is on record?
A: inconclusive: 17.8 µM [inhibitor, single point]

Q: Which “outcome” value does the source give for `CCCNC(=O)O[C@@H]1CC[C@]2(C)C(CC[C@@H](O)[C@H]2CC(=O)NCc2ccc(OC)cc2)[C@]1(C)CO` (stereo partly specified) here?
A: inactive

Q: Which Potency does the source give for `CCOc1ccc(NC(=O)c2cn(C3CCCCC3)c(=O)c3c2c2ccccc2n3C)cc1` here?
A: inconclusive: 17.8 µM [inhibitor, single point]

Q: With `Cc1ncc(S(C)(=O)=O)c(N2CC(N3CCCCC3C)C2)n1` (stereo unspecified) as the compound, how does the “activity, negative = inhibition” value read?
A: inactive: -7.34%

Q: Which Potency does the source give for `Cc1ccc(-c2nnc(SCC(=O)NC(C)(C)C)nc2-c2ccc(C)cc2)cc1` here?
A: inconclusive: 17.8 µM [inhibitor, single point]

Q: Which Potency does the source give for `O=c1[nH]c(N2CCOCC2)nc2c1CCN(Cc1cc(F)c(F)c(F)c1)CC2` here?
A: inconclusive: 1.58 µM [inhibitor, partial curve, poor fit]

Q: Which “activity, negative = inhibition” value does the source give for `O=C(Nc1ccc([C@H]2OCC(=O)N(Cc3cccnc3)[C@@H]2CO)cc1)c1ccnc(Cl)c1` here?
A: inactive: -0.772%

Q: Which Potency does the source give for `Cc1ccc(Sc2ccc(N3CCCC(C(=O)Nc4ccc(F)cc4)C3)nn2)cc1` (stereo unspecified) here?
A: inconclusive: 12.6 µM [inhibitor, single point]

Q: With `COc1ccc(-c2cn3c(n2)sc2cc(C(=O)NCCCc4ccccc4)ccc23)cc1` as the compound, how does the Potency read?
A: inconclusive: 17.8 µM [inhibitor, single point]

Q: For `O=C(Cn1nc(N2CCN(c3ccccc3)CC2)ccc1=O)NCc1ccccc1F`, which “activity, negative = inhibition” value is on record?
A: inactive: 25.2%

Q: For `COc1ccccc1CN1CCc2nc(C(=O)NCc3cccc(F)c3)oc2CC1`, which Potency is on record?
A: inconclusive: 4.47 µM [inhibitor, full curve, poor fit]

Q: For `CNC(=O)C1(N2CCC[C@H]2C(=O)N2CCOCC2)CCCCC1`, which “activity, negative = inhibition” value is on record?
A: inactive: 12% [at 44.1 µM]

Q: With `CCCS(=O)(=O)c1nc(S(=O)(=O)c2ccc(C)cc2)c(NCCCOC(C)C)s1` as the compound, how does the Potency read?
A: inconclusive: 1.41 µM [inhibitor, full curve, poor fit]

Q: With `Cn1nc(C2CCCN(C(=O)c3ccncc3)C2)n(Cc2ccccc2)c1=O` (stereo unspecified) as the compound, how does the “activity, negative = inhibition” value read?
A: inactive: 5.65%

Q: Which Potency does the source give for `Cc1oc2ccn(Cc3ccccc3F)c(=O)c2c1C(=O)NCCCN1CCCCC1C` (stereo unspecified) here?
A: inconclusive: 0.398 µM [inhibitor, partial curve, poor fit]

Q: For `O=C1Nc2ccccc2C12CCN([S+](=O)([O-])c1cccc(C(F)(F)F)c1)C2` (stereo unspecified), which “outcome” value is on record?
A: inactive

Q: With `CCOc1ccccc1Nc1nc2ccccc2nc1NS(=O)(=O)c1ccc(Cl)cc1` as the compound, how does the Potency read?
A: inconclusive: 0.0708 µM [inhibitor, full curve, poor fit]

Q: With `CCN1CCN(c2ncnc3c2CN(C2CCC2)C(=O)CN3C)CC1` as the compound, how does the Potency read?
A: inconclusive: 11.2 µM [inhibitor, partial curve, poor fit]

Q: With `CCOc1ccc(CNC(=O)CCCn2c(=O)c3cccn3c3ccccc32)cc1` as the compound, how does the Potency read?
A: inconclusive: 6.31 µM [inhibitor, partial curve]

Q: For `O=C(NC1CCN(c2cc(-c3ccccc3)[nH]n2)C1)c1cccc(F)c1` (stereo unspecified), which “activity, negative = inhibition” value is on record?
A: inactive: -6.71%

Q: With `CCCc1ccc(S(=O)(=O)N2CCN(C3(CC)CCN(C(=O)NC)C3)CC2)cc1` (stereo unspecified) as the compound, how does the Potency read?
A: inconclusive: 12.6 µM [inhibitor, single point]

Q: With `Cc1ccccc1CN1CCc2nc(C(=O)NCCOc3ccccc3)oc2CC1` as the compound, how does the Potency read?
A: inconclusive: 0.199 µM [inhibitor, full curve, poor fit]

Q: Which Potency does the source give for `O=C(c1ccc(-c2noc(C3CC3)n2)cc1)N1CCC2(CCOCC2)CC1` here?
A: inconclusive: 3.98 µM [inhibitor, single point]

Q: Which Potency does the source give for `CCCCc1ncc(CN2CCN(Cc3ccccc3)CC(O)C2)[nH]1` (stereo unspecified) here?
A: inconclusive: 10 µM [inhibitor, partial curve]

Q: With `O=C(Nc1ccc(C(F)(F)F)cc1)c1cc(S(=O)(=O)N2CCCc3ccccc32)ccc1F` as the compound, how does the Potency read?
A: inconclusive: 14.1 µM [inhibitor, single point]

Q: Which activity, negative = inhibition does the source give for `COc1ccc(CN2CCCC3(CC(c4cccnc4)=NO3)C2)cc1` (stereo unspecified) here?
A: inconclusive: -132% [inhibitor]

Q: Which Potency does the source give for `Cn1ccnc1CN1C[C@@H](F)[C@@H](OCc2nc3ccc(C(F)(F)F)cc3[nH]2)C1` here?
A: inconclusive: 20 µM [inhibitor, single point]

Q: Which Potency does the source give for `CCNC(=O)[C@@H]1C[C@H](N)CN1S(=O)(=O)c1ccc2ccccc2c1` here?
A: inconclusive: 15.8 µM [inhibitor, partial curve, poor fit]

Q: With `CCN(CC)CCNC(=O)c1ccc(-c2nc(CN3CCc4ccccc43)c(C)o2)cc1` as the compound, how does the Potency read?
A: inconclusive: 12.6 µM [inhibitor, single point]

Q: With `CCOC(=O)c1cccc(NC(=O)CSc2cc(=O)n(C)c3ccccc23)c1` as the compound, how does the Potency read?
A: inconclusive: 0.224 µM [inhibitor, full curve, poor fit]

Q: Which Potency does the source give for `Cc1ccc(Cl)cc1NC(=O)c1nnn(Cc2ccccc2)c1N` here?
A: active: 1.12 µM

Q: With `COc1cccc(CNC(=O)C2CCN(Cc3cc4ccccc4n3Cc3ccccc3)CC2)c1OC` as the compound, how does the Potency read?
A: inconclusive: 11.2 µM [inhibitor, single point]

Q: With `COC(=O)C1=C(C)N=C2SC=C(CC(=O)NCc3ccccc3F)N2C1c1cccc(OC)c1` (stereo unspecified) as the compound, how does the Potency read?
A: inconclusive: 1.12 µM [inhibitor, partial curve, poor fit]

Q: With `CCOc1ccc(S(=O)(=O)NCc2ccc3c(c2)CCN3C(=O)c2ccc(C)cc2)cc1` as the compound, how does the Potency read?
A: inconclusive: 17.8 µM [inhibitor, single point]

Q: Which Potency does the source give for `O=C1NCCCCCCN(Cc2ccncc2)[C@@H]2CN(S(=O)(=O)c3ccccc3)CC[C@@H]12` here?
A: inconclusive: 15.8 µM [inhibitor, single point]

Q: Which Potency does the source give for `O=C(COc1ccc(Cl)cc1)Nc1ccc2nc(SCC(=O)N3CCOCC3)sc2c1` here?
A: inconclusive: 11.2 µM [inhibitor, single point]

Q: For `O=C(NCc1ccccc1-n1cncn1)C12CNCC1CNC2` (stereo unspecified), which “activity, negative = inhibition” value is on record?
A: inactive: -1.62%

Q: With `O=C(Cc1ccccn1)N1CCCC(c2nn(-c3cccc(Cl)c3)c(=O)[nH]2)C1` (stereo unspecified) as the compound, how does the Potency read?
A: inconclusive: 11.2 µM [inhibitor, single point]

Q: With `CCCCOc1ccc(C(=O)N2CCC[C@H]2c2nc(-c3ccc(C)cc3)no2)cc1` as the compound, how does the Potency read?
A: inconclusive: 17.8 µM [inhibitor, single point]

Q: Which Potency does the source give for `CC(C)(C)c1ccc(S(=O)(=O)c2cnc(SCC(=O)Nc3ccc4c(c3)OCCO4)[nH]c2=O)cc1` here?
A: inconclusive: 20 µM [inhibitor, single point]

Q: For `CC(C)CC(=O)NCC(c1ccc2c(c1)OCO2)N1CCN(c2ccc(F)cc2)CC1` (stereo unspecified), which Potency is on record?
A: active: 10 µM

Q: Which Potency does the source give for `O=C(NCc1ccccc1)c1nc2c(o1)CCN(Cc1ccc(F)cc1F)CC2` here?
A: inconclusive: 12.6 µM [inhibitor, partial curve]

Q: With `COc1ccc(C(=O)NC[C@H]2C[C@@H]3CCN2C[C@@H]3c2cc(-c3ccc4ccccc4c3)nn2C)cc1` as the compound, how does the Potency read?
A: inconclusive: 7.08 µM [inhibitor, partial curve, poor fit]

Q: For `O=c1[nH]c(C2CCCN(Cc3cccc(-c4cccs4)c3)C2)nc2ccc(F)cc12` (stereo unspecified), which Potency is on record?
A: inconclusive: 10 µM [inhibitor, single point]

Q: For `O=C1CCCN1c1ccc(Cn2ccn3nc(-c4ccc(F)cc4)c(CO)c3c2=O)cc1`, which Potency is on record?
A: inconclusive: 3.98 µM [inhibitor, single point]

Q: Which activity, negative = inhibition does the source give for `O=C(Nc1ccccc1F)N1CC2CCC(C1)N2Cc1cccc(-c2cccs2)c1` here?
A: inconclusive: -54.3% [inhibitor]

Q: Which Potency does the source give for `COc1ccc(CN2CC(c3ncc4c(-c5ccccc5)nccn34)C2)cc1O` here?
A: inconclusive: 10 µM [inhibitor, partial curve, poor fit]

Q: For `O=C(NCc1ccccn1)C1CN(S(=O)(=O)c2cccnc2)CC12CCCCC2` (stereo unspecified), which Potency is on record?
A: inconclusive: 10 µM [inhibitor, single point]

Q: For `CCOC(=O)c1cc(-c2ccccc2)n(CCCC(=O)Nc2cccc(C)c2)c1C`, which “outcome” value is on record?
A: inactive

Q: With `COc1cc(OC)cc(C(=O)NCC2CCCN(Cc3cc4ccccc4o3)C2)c1` (stereo unspecified) as the compound, how does the Potency read?
A: inconclusive: 20 µM [inhibitor, single point]

Q: With `CCCCNc1nc2c(s1)C[C@]1(C)CC[C@@H]3[C@H](OC(=O)[C@H]3C)[C@H]1[C@@H]2C` as the compound, how does the Potency read?
A: inconclusive: 17.8 µM [inhibitor, single point]

Q: For `O=C(/C=C/c1ccccc1)Nc1nc2n(n1)C(c1ccc(Cl)cc1)C=C(c1ccccc1)N2` (stereo unspecified), which Potency is on record?
A: active: 11.2 µM

Q: For `Cc1cc(S(=O)(=O)N2[C@H]3CC[C@@H]2c2cnc(-c4ccccc4)nc2C3)ccc1F`, which Potency is on record?
A: inconclusive: 17.8 µM [inhibitor, single point]

Q: For `O=C(CN1C(=O)C2(SCC(=O)N2c2cccc(F)c2)c2ccccc21)NCc1ccccc1Cl` (stereo unspecified), which Potency is on record?
A: inconclusive: 10 µM [inhibitor, single point]
